Laboratory results as given in PubChem BioAssay AID1508624 (National Center for Advancing Translational Sciences (NCATS), 2021).
The campaign covered roughly 48,000 compounds. About 120 (0.25%) were called active. The shares of active, inactive and inconclusive entries below differ from those in the screen. Calls follow the shape of the dose curve; as a rule, active = well fitted activation curve with a large enough effect; inconclusive = small, poorly fitted or top-dose-only effect, or another doubt; inactive = no such curve, though single readings can be large or run the other way. A potency beside an inconclusive call is a rough fit, not a confirmed value.

Assay: Primary qHTS for Identification of Small Molecule Activators of Huntingtin-Antisense Promoter Activity; also: nearly all actives have a fitted effect of over 55% in size
Details: HEK293 HTT-AS promoter firefly luciferase reporter, 24 h; activity change, positive = activation: at 57.5 µM (top of the series), percent change from vehicle, -100% = no light
Outline: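 Luminescence was read after Dual-Glo reagent and a 10 min room-temperature incubation. Values were normalized to vehicle (0% activity) and zero RLU (-100% activity). Reporter HEK293 cells had been exposed to compounds (up to 57.5 uM final) for 24 h.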
Potency is read from the fitted curve at half-maximal effect; tags tell the direction and shape of the fitted curve.

Potency, inactive:
CC(C)c1ccc(NC(=O)c2cc(S(=O)(=O)NC3CCCCC3)ccc2F)cc1, Cc1ccc(NC(=O)C2CCCN(c3nc4ccccc4s3)C2)c(C)c1 (stereo unspecified), COc1cc(OC)c(N(C)C(=O)CSc2c3c(nc4ccc(Cl)cc24)CCCC3)cc1Cl, Cc1nc(-c2ccc(S(=O)(=O)NCc3ccc(F)cc3)cc2)co1, COc1ccc(CNCCC(c2ccc3c(c2)OCO3)c2ccccc2OC)cc1 (stereo unspecified), CC(=O)c1ccc(NS(=O)(=O)c2ccc3[nH]c4c(c3c2)CCCC4)cc1, Cc1ccc(NC(=O)CN2C(=O)COc3ccc(S(=O)(=O)NC4CCCC4)cc32)cc1Cl, COc1cc(S(N)(=O)=O)cc(C(=O)O)c1OC

Potency, inconclusive:
O=C(Nc1cc(-c2ccc(F)c(F)c2)no1)c1ccccc1F 1780 nM [activator, full curve], COc1ccc(/C=C/C(=O)Nc2cccc(F)c2)cc1 178 nM [activator, full curve, poor fit], Cc1cccc(CC(=O)Nc2cccc(-c3cn4cccnc4n3)c2)c1 25100 nM [activator, partial curve], COC(=O)c1ccc(NC(=O)c2cc3cc4ccc(OC)c(Cl)c4nc3s2)cc1 25100 nM [activator, partial curve, poor fit], Cc1ccc(NC(=O)c2sc3nc[nH]c(=O)c3c2C)cc1C 2510 nM [activator, full curve], O=C(Nc1c(O)c2ccccc2oc1=O)c1ccccc1Cl 20000 nM [activator, single point], Cc1cccc(-c2noc(-c3ccc(NCc4cccnc4)c([N+](=O)[O-])c3)n2)c1 3550 nM [activator, full curve, poor fit], CCC(=O)Nc1cccc(OCc2cc(=O)n3cc(C)ccc3n2)c1 2240 nM [activator, full curve], Cc1nn2c(-c3ccco3)ccnc2c1-c1ccc(Cl)cc1 2240 nM [activator, full curve], O=C(Nc1noc2ccccc12)c1cccc(Cl)c1Cl 1120 nM [activator, partial curve, poor fit], COc1ccc(-c2nc3cc(NC(=O)COc4ccc(C)c(C)c4)ccc3o2)cc1 2240 nM [activator, full curve], O=c1cc(-c2ccc(O)c(O)c2)oc2cc(O)cc(O)c12 4320 nM [activator, full curve], CN(Cc1ccccc1)c1ccc(-c2nc(-c3ccccn3)no2)cc1[N+](=O)[O-] 2240 nM [activator, single point], Cc1cccc(OCC(=O)Nc2ccc(-c3nc4ccccc4o3)cc2)c1C 1260 nM [activator, partial curve, poor fit], Cc1ccc(-n2c(=O)[nH]c3cc(C(=O)NCc4ccccc4)ccc3c2=O)cc1 3980 nM [activator, single point], Cc1cccn2c(=O)c(C(=O)NCCc3ccccc3)cnc12 1000 nM [activator, partial curve, poor fit], COc1cccc(NC(=O)CSc2nccn2C2CCCC2)c1 10000 nM [activator, partial curve], COc1ccc(NC(=O)CSc2nnc(NC(=O)NC3CCCCC3)s2)cc1OC 5620 nM [activator, partial curve], CCOc1ccc(-c2cc3c(=O)n(CC(=O)Nc4cc(F)ccc4C)ccn3n2)cc1 1000 nM [activator, full curve, poor fit], CCCCNc1ccc(-c2nc(-c3ccco3)no2)cc1[N+](=O)[O-] 1260 nM [activator, full curve, poor fit], CCOc1ccc(C(=O)Nc2cccc(NC(=O)c3ccc(C(C)(C)C)cc3)c2)cc1Br 39800 nM [activator, single point], CCn1cc2c(n1)-c1c(oc(C(=O)Nc3cccc(C)c3C)c1C)CC2 2820 nM [activator, full curve, poor fit], O=C(OCc1cc(=O)n2nc(C3CCCCC3)sc2n1)c1ccccc1Cl 3980 nM [activator, single point], Cc1cc2nc(-c3cccc(NC(=O)C(C)C)c3C)oc2cc1C 3160 nM [activator, partial curve, poor fit], O=C(c1cc(-c2ccccc2O)on1)N1CCCCC1 2000 nM [activator, full curve, poor fit], COc1cccc(C(=O)Nc2nc3c(s2)CCCC3)c1 1000 nM [activator, partial curve, poor fit], CNc1ccc(-c2nc(-c3ccccn3)no2)cc1[N+](=O)[O-] 178 nM [activator, full curve, poor fit], CCc1noc(-c2ccc(N3CCC(C)CC3)c([N+](=O)[O-])c2)n1 1580 nM [activator, partial curve, poor fit], Clc1cccc(N2CCN(c3ncnc4c3nc3n4CCCC3)CC2)c1 3550 nM [activator, partial curve, poor fit], C#CCn1c(/C=C/c2ccc(Cl)cc2)nc2ccccc21 355 nM [activator, full curve, poor fit]

Potency, active:
Fc1ccc(-n2ncc3c(NCCCc4ccccc4)ncnc32)cc1 8910 nM

Activity change, positive = activation, inconclusive:
Cc1ccc(C)c(NC(=O)Cn2cc(S(=O)(=O)c3ccc(F)cc3)c(=O)c3cc(F)ccc32)c1 -0.463% [activator], COc1ccc(Nc2ncnc3scc(-c4ccc(F)cc4)c23)cc1 -21.2% [activator]
